The results in this text go back to PMC6451091.

The other results are listed elsewhere or left out. For some assays here: At the low end of the ranking the order means little. For some assays here: The protein was read in a cell extract, so binding may be indirect.

One experiment has as its target PU.1 (IVT) (UniProt P17947). In words: protein-binding microarray (PBM). Particulars: 20 mM HEPES pH 7.9, 100 mM NaCl, 1 mM DTT, 0.2 mg/mL BSA, 0.02% Triton X-100, 2% milk, 0.4 mg/mL salmon testes DNA; 1 h; temperature not stated; high values mean tight binding; double strand, one strand shown; sequences stand for … in GCCTAGCAC…GTGCTAGGTCTTGATTCGCTTGACGCTGCTG
Take ACAAAAAGGAACCGTGCCCC: the binding signal was determined as 0.641 z-score.

TAAATGAGGAAATGGGAGCT showed a binding signal of 4.39 z-score.

Sequence GAAAACATGAAGTCCCATAG returned a binding signal of 0.769 z-score.

Consider AGGAAGGGGAAGTGGTTCGT, for which the binding signal was 5.78 z-score.

Turning to CAAAAGGGGAAGTGCTAAAC, the binding signal worked out at 7.7 z-score.

TGTATAAGGAAGTGGGAGCC came in with a binding signal of 3.93 z-score.

The sequence GGAAAGAGGAAGTGCAACCA came in with a binding signal of 8.07 z-score.

AGAAGAGGGAAGTGGAGGTT returned a binding signal of 4.36 z-score.

As for TGATTGAGGAAGTGGCTGGG, the binding signal is 5.54 z-score.

AGCAGGAGGAAGTGGGTGGA registered a binding signal of 3.97 z-score.

In turn, ACAAAAAGGAACTCTGCCCC came in with a binding signal of 1.86 z-score.

The sequence TGAAAGGGGAAGTGCTAAAC showed a binding signal of 6.69 z-score.

In turn, TAAAACAGGAAGTGGTGTTC registered a binding signal of 7.81 z-score.

CGAAAGGGGAAGTTCTAAAC displayed a binding signal of 7.34 z-score.

The sequence GAAAAGAGGAAGTCACATTG returned a binding signal of 8.32 z-score.

The sequence TGAAAGAGGAAGTGCAAACA came in with a binding signal of 7.72 z-score.

As for AAAAAAAGGAACTTGCTAGA, the binding signal came out at 5.48 z-score.

With GGAAAAGGGAAGTGCTCTGA, the binding signal stood at 6.96 z-score.

AAAAAGAGGAAGTCGTTTTC registered a binding signal of 8.57 z-score.

As for CGAAAGGGGAAGTGCTAAAA, the binding signal stood at 6.97 z-score.

The sequence GATAAGAGGAGGTCCTCTGT returned a binding signal of -0.285 z-score.

Sequence GATAATAGGAAGTCCTCTGT displayed a binding signal of 3.3 z-score.

Take AGCAGGAGGAAGTGAAGCTA: the binding signal is 3.77 z-score.

In the case of AAAAAAAGGAAATACTGTGA, the binding signal was determined as 3.25 z-score.

In turn, ACAAAAAGGAAATGTGCCCC showed a binding signal of 1.02 z-score.

Turning to GATAAGAGGATGTCCTCTGT, the binding signal was found to be 1.32 z-score.

Sequence AGAAAAAGGAACTGGCTAGA had a binding signal of 3.75 z-score.

As to GATTTGAGGAAATGGAACTT, the binding signal is 3.67 z-score.

The sequence CCTAAAGGGAAGTGTAAATA gave a binding signal of 3.27 z-score.

Take GAGAAAGGGAAGTGGCTCAG: the binding signal amounted to 4.51 z-score.

For GCTAGGAGGAAGTGACTGCA, the binding signal is 4.61 z-score.

CAAAAGAGGAAGTCAATACA registered a binding signal of 7.84 z-score.

Take GAAAACAGGAAGTCCCATTG: the binding signal amounted to 7.34 z-score.

TTTAAGAGGAAATGATTCTA yielded a binding signal of 2.78 z-score.

For TGAAAGAGGAAGTGGATAGG, the binding signal was found to be 7.5 z-score.

Turning to GAGGGGAGGAACTGGCAGTG, the binding signal turned out to be 0.922 z-score.

Consider AAATACAGGAAGTCCAACAT, for which the binding signal worked out at 5.21 z-score.

For CTATTGAGGAACTGCCTCTG, the binding signal stood at 2.97 z-score.

For AAAAAGAGGAAGTCAAATTA, the binding signal turned out to be 8.57 z-score.

The sequence TTAAAGGGGAAGTGGACAAA yielded a binding signal of 5.86 z-score.

Another experiment addresses PU.1 (endogenous, THP-1 nuclear extract) (UniProt P17947). Kind of experiment: nuclear extract protein-binding microarray (nextPBM). Particulars: 20 mM HEPES pH 7.9, 100 mM NaCl, 1 mM DTT, 0.2 mg/mL BSA, 0.02% Triton X-100, 2% milk, 0.4 mg/mL salmon testes DNA; 1 h; temperature not stated; high values mean tight binding; double strand, one strand shown; sequences stand for … in GCCTAGCAC…GTGCTAGGTCTTGATTCGCTTGACGCTGCTG
ACAAAAAGGAACCGTGCCCC returned a binding signal of 0.938 z-score.

TAAATGAGGAAATGGGAGCT returned a binding signal of 4.62 z-score.

As for GAAAACATGAAGTCCCATAG, the binding signal was found to be 0.537 z-score.

Sequence AGGAAGGGGAAGTGGTTCGT came in with a binding signal of 6.25 z-score.

Sequence CAAAAGGGGAAGTGCTAAAC had a binding signal of 7.16 z-score.

The sequence TGTATAAGGAAGTGGGAGCC returned a binding signal of 3.99 z-score.

For the sequence GGAAAGAGGAAGTGCAACCA, the binding signal stood at 7.34 z-score.

In the case of AGAAGAGGGAAGTGGAGGTT, the binding signal stood at 4.56 z-score.

In the case of TGATTGAGGAAGTGGCTGGG, the binding signal came out at 6.3 z-score.

For the sequence AGCAGGAGGAAGTGGGTGGA, the binding signal was 4.17 z-score.

In the case of ACAAAAAGGAACTCTGCCCC, the binding signal was 1.41 z-score.

Sequence TGAAAGGGGAAGTGCTAAAC came in with a binding signal of 6.76 z-score.

TAAAACAGGAAGTGGTGTTC returned a binding signal of 7.33 z-score.

As for CGAAAGGGGAAGTTCTAAAC, the binding signal is 7.21 z-score.

With GAAAAGAGGAAGTCACATTG, the binding signal worked out at 7.37 z-score.

TGAAAGAGGAAGTGCAAACA displayed a binding signal of 7.05 z-score.

As to AAAAAAAGGAACTTGCTAGA, the binding signal was determined as 4.85 z-score.

GGAAAAGGGAAGTGCTCTGA returned a binding signal of 6.82 z-score.

In turn, AAAAAGAGGAAGTCGTTTTC showed a binding signal of 7.41 z-score.

Regarding CGAAAGGGGAAGTGCTAAAA, the binding signal was found to be 6.83 z-score.

In turn, GATAAGAGGAGGTCCTCTGT gave a binding signal of -0.212 z-score.

Take GATAATAGGAAGTCCTCTGT: the binding signal turned out to be 2.8 z-score.

In turn, AGCAGGAGGAAGTGAAGCTA displayed a binding signal of 4.31 z-score.

AAAAAAAGGAAATACTGTGA had a binding signal of 2.13 z-score.

With ACAAAAAGGAAATGTGCCCC, the binding signal was 0.719 z-score.

GATAAGAGGATGTCCTCTGT: the binding signal was determined as 1.16 z-score.

The sequence AGAAAAAGGAACTGGCTAGA yielded a binding signal of 3.31 z-score.

GATTTGAGGAAATGGAACTT showed a binding signal of 3.23 z-score.

On to CCTAAAGGGAAGTGTAAATA, for which the binding signal came to 3.1 z-score.

Regarding GAGAAAGGGAAGTGGCTCAG, the binding signal was 4.93 z-score.

The sequence GCTAGGAGGAAGTGACTGCA registered a binding signal of 5.14 z-score.

Take CAAAAGAGGAAGTCAATACA: the binding signal is 7.38 z-score.

Turning to GAAAACAGGAAGTCCCATTG, the binding signal was 7.27 z-score.

Sequence TTTAAGAGGAAATGATTCTA yielded a binding signal of 2.64 z-score.

TGAAAGAGGAAGTGGATAGG showed a binding signal of 7.41 z-score.

Regarding GAGGGGAGGAACTGGCAGTG, the binding signal was 1.38 z-score.

AAATACAGGAAGTCCAACAT: the binding signal is 5.97 z-score.

Take CTATTGAGGAACTGCCTCTG: the binding signal was 3.07 z-score.

In the case of AAAAAGAGGAAGTCAAATTA, the binding signal was found to be 7.5 z-score.

As for TTAAAGGGGAAGTGGACAAA, the binding signal turned out to be 6.23 z-score.
